The source of these data is the supplement of paper PMC11876631.

± gives the standard deviation of the averaged measurements. Laboratory Escherichia coli strains with one amino-acid change in an essential protein, pooled on minimal glucose agar with carbenicillin or gentamicin at twice the control MIC (plus kanamycin and chloramphenicol for the plasmids), 48 h. Fold change of barcode share against drug-free plates; higher = less susceptible. Active = above 20 in both replicates (the paper's putatively resistant). '<' = one read or none on drug, '>' = one read or none on a drug-free plate. Shares are relative, so most strains fall below 1 when a few take over. Listed are strains with at least 15 reads on both drug-free plates, and hits; most hits rest on fewer reference reads. Replicate rank correlation about 0.5. Edits are read from barcodes.

This data set addresses Escherichia coli (laboratory strain). Briefly: barcode share on antibiotic plates over drug-free plates; higher = less susceptible. Here is the method:
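A pool of E. coli strains, each edited to carry one amino-acid change in an essential protein, was grown for 48 h on minimal glucose agar with or without antibiotic; strain barcodes were sequenced; mean of two replicates.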

[1] abbreviates: antibiotic: carbenicillin, 2× MIC (3.1 µg/mL).
Where [2] appears, read: antibiotic: gentamicin, 2× MIC (MIC 0.45 µg/mL).

B1: mreC I26Q (protein)
chain: MKPIFSRGPSLQIRLILAVLVALGIQIADSRLGTFSQIRTYMDTAVSPFYFVSNAPRELLDGVSQTLASRDQLELENRALRQELLLKNSELLMLGQYKQENARLRELLGSPLRQDEQKMVTQVISTVNDPYSDQVVIDKGSVNGVYEGQPVISDKGVVGQVVAVAKLTSRVLLICDATHALPIQVLRNDIRVIAAGNGCTDDLQLEHLPANTDIRVGDVLVTSGLGGRFPEGYPVAVVSSVKLDTQRAYTVIQARPTAGLQRLRYLLLLWGADRNGANPMTPEEVHRVANERLMQMMPQVLPSPDAMGPKLPEPATGIAQPTPQQPATGNAATAPAAPTQPAANRSPQRATPPQSGAQPPARAPGGQ
Take B1: the “fold change of barcode share” value was 0.473 ± 0.099 under setting [1] and 0.0134 ± 0.007 under setting [2].

B2: mreC I27P (protein)
chain: MKPIFSRGPSLQIRLILAVLVALGIIPADSRLGTFSQIRTYMDTAVSPFYFVSNAPRELLDGVSQTLASRDQLELENRALRQELLLKNSELLMLGQYKQENARLRELLGSPLRQDEQKMVTQVISTVNDPYSDQVVIDKGSVNGVYEGQPVISDKGVVGQVVAVAKLTSRVLLICDATHALPIQVLRNDIRVIAAGNGCTDDLQLEHLPANTDIRVGDVLVTSGLGGRFPEGYPVAVVSSVKLDTQRAYTVIQARPTAGLQRLRYLLLLWGADRNGANPMTPEEVHRVANERLMQMMPQVLPSPDAMGPKLPEPATGIAQPTPQQPATGNAATAPAAPTQPAANRSPQRATPPQSGAQPPARAPGGQ
Regarding B2, the “fold change of barcode share” value was 0.289 ± 0.15 under setting [1] and < 0.00683 under setting [2].

B3: mreC I124W (protein)
chain: MKPIFSRGPSLQIRLILAVLVALGIIIADSRLGTFSQIRTYMDTAVSPFYFVSNAPRELLDGVSQTLASRDQLELENRALRQELLLKNSELLMLGQYKQENARLRELLGSPLRQDEQKMVTQVWSTVNDPYSDQVVIDKGSVNGVYEGQPVISDKGVVGQVVAVAKLTSRVLLICDATHALPIQVLRNDIRVIAAGNGCTDDLQLEHLPANTDIRVGDVLVTSGLGGRFPEGYPVAVVSSVKLDTQRAYTVIQARPTAGLQRLRYLLLLWGADRNGANPMTPEEVHRVANERLMQMMPQVLPSPDAMGPKLPEPATGIAQPTPQQPATGNAATAPAAPTQPAANRSPQRATPPQSGAQPPARAPGGQ
Take B3: the “fold change of barcode share” value by setting is: under setting [1], 0.186 ± 0.021; under setting [2], < 0.0104.

B4: mreC I124A (protein)
chain: MKPIFSRGPSLQIRLILAVLVALGIIIADSRLGTFSQIRTYMDTAVSPFYFVSNAPRELLDGVSQTLASRDQLELENRALRQELLLKNSELLMLGQYKQENARLRELLGSPLRQDEQKMVTQVASTVNDPYSDQVVIDKGSVNGVYEGQPVISDKGVVGQVVAVAKLTSRVLLICDATHALPIQVLRNDIRVIAAGNGCTDDLQLEHLPANTDIRVGDVLVTSGLGGRFPEGYPVAVVSSVKLDTQRAYTVIQARPTAGLQRLRYLLLLWGADRNGANPMTPEEVHRVANERLMQMMPQVLPSPDAMGPKLPEPATGIAQPTPQQPATGNAATAPAAPTQPAANRSPQRATPPQSGAQPPARAPGGQ
As to B4, the “fold change of barcode share” value under setting [1] came to 0.357 ± 0.13 and the “fold change of barcode share” value under setting [2] was < 0.0157.

B5: mreC V162A (protein)
chain: MKPIFSRGPSLQIRLILAVLVALGIIIADSRLGTFSQIRTYMDTAVSPFYFVSNAPRELLDGVSQTLASRDQLELENRALRQELLLKNSELLMLGQYKQENARLRELLGSPLRQDEQKMVTQVISTVNDPYSDQVVIDKGSVNGVYEGQPVISDKGVVGQVAAVAKLTSRVLLICDATHALPIQVLRNDIRVIAAGNGCTDDLQLEHLPANTDIRVGDVLVTSGLGGRFPEGYPVAVVSSVKLDTQRAYTVIQARPTAGLQRLRYLLLLWGADRNGANPMTPEEVHRVANERLMQMMPQVLPSPDAMGPKLPEPATGIAQPTPQQPATGNAATAPAAPTQPAANRSPQRATPPQSGAQPPARAPGGQ
Take B5: the “fold change of barcode share” value runs as follows: under setting [1], 0.21 ± 0.058; under setting [2], 0.00421 ± 0.0032.

B6: mreC I27A (protein)
chain: MKPIFSRGPSLQIRLILAVLVALGIIAADSRLGTFSQIRTYMDTAVSPFYFVSNAPRELLDGVSQTLASRDQLELENRALRQELLLKNSELLMLGQYKQENARLRELLGSPLRQDEQKMVTQVISTVNDPYSDQVVIDKGSVNGVYEGQPVISDKGVVGQVVAVAKLTSRVLLICDATHALPIQVLRNDIRVIAAGNGCTDDLQLEHLPANTDIRVGDVLVTSGLGGRFPEGYPVAVVSSVKLDTQRAYTVIQARPTAGLQRLRYLLLLWGADRNGANPMTPEEVHRVANERLMQMMPQVLPSPDAMGPKLPEPATGIAQPTPQQPATGNAATAPAAPTQPAANRSPQRATPPQSGAQPPARAPGGQ
On to B6, for which the “fold change of barcode share” value by setting is: under setting [1], 1.25 ± 0.37; under setting [2], < 0.00565.

B7: mreC V123Q (protein)
chain: MKPIFSRGPSLQIRLILAVLVALGIIIADSRLGTFSQIRTYMDTAVSPFYFVSNAPRELLDGVSQTLASRDQLELENRALRQELLLKNSELLMLGQYKQENARLRELLGSPLRQDEQKMVTQQISTVNDPYSDQVVIDKGSVNGVYEGQPVISDKGVVGQVVAVAKLTSRVLLICDATHALPIQVLRNDIRVIAAGNGCTDDLQLEHLPANTDIRVGDVLVTSGLGGRFPEGYPVAVVSSVKLDTQRAYTVIQARPTAGLQRLRYLLLLWGADRNGANPMTPEEVHRVANERLMQMMPQVLPSPDAMGPKLPEPATGIAQPTPQQPATGNAATAPAAPTQPAANRSPQRATPPQSGAQPPARAPGGQ
B7: the “fold change of barcode share” value reads like this: under setting [1], 0.247 ± 0.094; under setting [2], < 0.0121.

B8: mreC I27W (protein)
chain: MKPIFSRGPSLQIRLILAVLVALGIIWADSRLGTFSQIRTYMDTAVSPFYFVSNAPRELLDGVSQTLASRDQLELENRALRQELLLKNSELLMLGQYKQENARLRELLGSPLRQDEQKMVTQVISTVNDPYSDQVVIDKGSVNGVYEGQPVISDKGVVGQVVAVAKLTSRVLLICDATHALPIQVLRNDIRVIAAGNGCTDDLQLEHLPANTDIRVGDVLVTSGLGGRFPEGYPVAVVSSVKLDTQRAYTVIQARPTAGLQRLRYLLLLWGADRNGANPMTPEEVHRVANERLMQMMPQVLPSPDAMGPKLPEPATGIAQPTPQQPATGNAATAPAAPTQPAANRSPQRATPPQSGAQPPARAPGGQ
In the case of B8, the “fold change of barcode share” value runs as follows: under setting [1], 0.409 ± 0.12; under setting [2], < 0.00766.

B9: mreC I26D (protein)
chain: MKPIFSRGPSLQIRLILAVLVALGIDIADSRLGTFSQIRTYMDTAVSPFYFVSNAPRELLDGVSQTLASRDQLELENRALRQELLLKNSELLMLGQYKQENARLRELLGSPLRQDEQKMVTQVISTVNDPYSDQVVIDKGSVNGVYEGQPVISDKGVVGQVVAVAKLTSRVLLICDATHALPIQVLRNDIRVIAAGNGCTDDLQLEHLPANTDIRVGDVLVTSGLGGRFPEGYPVAVVSSVKLDTQRAYTVIQARPTAGLQRLRYLLLLWGADRNGANPMTPEEVHRVANERLMQMMPQVLPSPDAMGPKLPEPATGIAQPTPQQPATGNAATAPAAPTQPAANRSPQRATPPQSGAQPPARAPGGQ
Regarding B9, the “fold change of barcode share” value runs as follows: under setting [1], 1.02 ± 0.098; under setting [2], < 0.00981.

B10: mreC I27Q (protein)
chain: MKPIFSRGPSLQIRLILAVLVALGIIQADSRLGTFSQIRTYMDTAVSPFYFVSNAPRELLDGVSQTLASRDQLELENRALRQELLLKNSELLMLGQYKQENARLRELLGSPLRQDEQKMVTQVISTVNDPYSDQVVIDKGSVNGVYEGQPVISDKGVVGQVVAVAKLTSRVLLICDATHALPIQVLRNDIRVIAAGNGCTDDLQLEHLPANTDIRVGDVLVTSGLGGRFPEGYPVAVVSSVKLDTQRAYTVIQARPTAGLQRLRYLLLLWGADRNGANPMTPEEVHRVANERLMQMMPQVLPSPDAMGPKLPEPATGIAQPTPQQPATGNAATAPAAPTQPAANRSPQRATPPQSGAQPPARAPGGQ
Take B10: the “fold change of barcode share” value runs as follows: under setting [1], 1.09 ± 1.1; under setting [2], 0.00981 ± 0.0049.

B11: mreC V162Q (protein)
chain: MKPIFSRGPSLQIRLILAVLVALGIIIADSRLGTFSQIRTYMDTAVSPFYFVSNAPRELLDGVSQTLASRDQLELENRALRQELLLKNSELLMLGQYKQENARLRELLGSPLRQDEQKMVTQVISTVNDPYSDQVVIDKGSVNGVYEGQPVISDKGVVGQVQAVAKLTSRVLLICDATHALPIQVLRNDIRVIAAGNGCTDDLQLEHLPANTDIRVGDVLVTSGLGGRFPEGYPVAVVSSVKLDTQRAYTVIQARPTAGLQRLRYLLLLWGADRNGANPMTPEEVHRVANERLMQMMPQVLPSPDAMGPKLPEPATGIAQPTPQQPATGNAATAPAAPTQPAANRSPQRATPPQSGAQPPARAPGGQ
For B11, the “fold change of barcode share” value is, setting by setting: under setting [1], 0.431 ± 0.099; under setting [2], 0.0037 ± 0.0013.

B12: mreC I27D (protein)
chain: MKPIFSRGPSLQIRLILAVLVALGIIDADSRLGTFSQIRTYMDTAVSPFYFVSNAPRELLDGVSQTLASRDQLELENRALRQELLLKNSELLMLGQYKQENARLRELLGSPLRQDEQKMVTQVISTVNDPYSDQVVIDKGSVNGVYEGQPVISDKGVVGQVVAVAKLTSRVLLICDATHALPIQVLRNDIRVIAAGNGCTDDLQLEHLPANTDIRVGDVLVTSGLGGRFPEGYPVAVVSSVKLDTQRAYTVIQARPTAGLQRLRYLLLLWGADRNGANPMTPEEVHRVANERLMQMMPQVLPSPDAMGPKLPEPATGIAQPTPQQPATGNAATAPAAPTQPAANRSPQRATPPQSGAQPPARAPGGQ
Take B12: the “fold change of barcode share” value was 1.13 ± 1.1 under setting [1] and < 0.00812 under setting [2].

B13: mreC V162W (protein)
chain: MKPIFSRGPSLQIRLILAVLVALGIIIADSRLGTFSQIRTYMDTAVSPFYFVSNAPRELLDGVSQTLASRDQLELENRALRQELLLKNSELLMLGQYKQENARLRELLGSPLRQDEQKMVTQVISTVNDPYSDQVVIDKGSVNGVYEGQPVISDKGVVGQVWAVAKLTSRVLLICDATHALPIQVLRNDIRVIAAGNGCTDDLQLEHLPANTDIRVGDVLVTSGLGGRFPEGYPVAVVSSVKLDTQRAYTVIQARPTAGLQRLRYLLLLWGADRNGANPMTPEEVHRVANERLMQMMPQVLPSPDAMGPKLPEPATGIAQPTPQQPATGNAATAPAAPTQPAANRSPQRATPPQSGAQPPARAPGGQ
Take B13: the “fold change of barcode share” value reads like this: under setting [1], 0.315 ± 0.15; under setting [2], 0.00623 ± 0.0019.
